# Experimental data: the supplement of paper PMC10126150
# Sequences with one replicate were seen in a single cluster, so their values are uncertain.
# Test system: ATP
# Test: switch fluorescence ratio, 500 uM ATP over buffer (Cy3 cluster intensity, sum of 5 cycles each) (fold (ratio)); higher = stronger signal-on switching upon ATP binding; sequences stand for … in TCGTCGGCAGCGTCAGATGTGTATAAGAGACAGTTTTTTTTTTTTTTTTTTTTTTTTT…TC
# Settings: aptamer strand: ATP DNA aptamer (quencher-CACCTGGGGGAGTATTGCGGAGGAAGG + anchor), 100 nM annealed; ATP concentration: 500 uM; one replicate
# Method in brief: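 Clusters with intensities outside 100-1000 RFU were excluded. The remaining Cy3-labelled switching-strand clusters on a modified Illumina MiSeq flow-cell had been annealed to 100 nM quencher-labelled ATP aptamer and imaged in selection buffer, then after 15 min with 500 uM ATP at 22 °C, for five cycles separated by NaOH stripping and re-annealing. The fluorescence ratio, averaged per switch-domain sequence, is each cluster's summed target-cycle Cy3 intensity over its summed buffer-cycle Cy3 intensity.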
# 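Further: ATP exposure 15 min at 22 °C before imaging.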
row,Sequence,switch fluorescence ratio
1,TCGAGAAGTT,1.01
2,TCGAGGACTT,1.01
3,TCGAGGGCTA,1.17
4,TCGAGGTTCA,1.04
5,TCGAGTAACG,1
6,TCGAGTTATG,1.01
7,TCGAGTTTAC,0.984
8,TCGATGAAAA,0.982
9,TCGATGGGGT,1
10,TCGATGTGGG,0.955
11,TCGATTCCTA,1.01
12,TCGATTCCTG,0.982
13,TCGCAACCGC,1.7
14,TCGCAACCTT,1.63
15,TCGCACGCGC,1.1
16,TCGCAGCCGT,0.959
17,TCGCAGCTGT,1.5
18,TCGCCACGTT,0.996
19,TCGCCAGGAT,1.02
20,TCGCCAGGCC,1.02
21,TCGCCCATGC,1.74
22,TCGCCGACAG,1.06
23,TCGCCGGGGT,0.976
24,TCGCGAGCCT,1.1
25,TCGCGCGAGA,0.995

row,Sequence,switch fluorescence ratio
1,TCGCGCGGAT,1.04
2,TCGCGGGGTT,1.05
3,TCGCGGTAGC,1.01
4,TCGCGTAAAT,0.973
5,TCGCTATATT,1.79
6,TCGGAAATTA,0.976
7,TCGGAAGACT,1.28
8,TCGGACGTA,1.08
9,TCGGACGTAA,4.65
10,TCGGACTGCT,1
11,TCGGAGAGGT,0.978
12,TCGGAGTAGT,1.22
13,TCGGATAGCG,0.958
14,TCGGATGGGG,0.954
15,TCGGCAAGAT,2.28
16,TCGGCCGCTA,1.07
17,TCGGCCGGAG,1.01
18,TCGGCCTCAT,1.04
19,TCGGCTCGGT,1
20,TCGGCTGATA,0.998
21,TCGGCTGCAG,1.03
22,TCGGGAATCC,1.02
23,TCGGGACCTC,1.02
24,TCGGGAGCGA,1.26
25,TCGGGCATTG,0.993

row,Sequence,switch fluorescence ratio
1,TCGGGCATTT,1.82
2,TCGGGCCGGA,2.08
3,TCGGGCGCG,0.994
4,TCGGGCGGCC,0.987
5,TCGGGCGGCG,1.1
6,TCGGGGATA,1.02
7,TCGGGGCAAT,3.63
8,TCGGGGTAGT,1.01
9,TCGGGTAGGC,1.01
10,TCGGGTCCCT,0.991
11,TCGGGTGAAT,1
12,TCGGGTGCTT,1.02
13,TCGGGTGGCA,0.975
14,TCGGGTTAA,1.06
15,TCGGTAACCG,0.988
16,TCGGTAGGGT,1.01
17,TCGGTAGTCT,0.987
18,TCGGTCGAC,1
19,TCGGTCGCCA,1.07
20,TCGGTCTGCA,1.02
21,TCGGTGAAAC,0.973
22,TCGGTGCGGA,1.01
23,TCGGTGCTAA,1.03
24,TCGGTGGTTT,0.996
25,TCGGTTAAGG,0.959

row,Sequence,switch fluorescence ratio
1,TCGGTTGGAT,0.966
2,TCGGTTGTCA,0.963
3,TCGGTTGTCG,0.961
4,TCGGTTTCAT,1.01
5,TCGTAAGTTA,0.982
6,TCGTACATGG,1.01
7,TCGTACCGT,1.02
8,TCGTACTTCC,1.94
9,TCGTATCAGG,1
10,TCGTATCCA,0.99
11,TCGTATGGCA,1.04
12,TCGTATGGTC,1.38
13,TCGTCAGCCA,1.13
14,TCGTCCCGGT,1.01
15,TCGTCCGGTT,1.01
16,TCGTCCTTT,0.96
17,TCGTCGAGAG,1
18,TCGTCGGGAG,0.995
19,TCGTCTGCA,1.72
20,TCGTGAATCA,1.02
21,TCGTGACGCA,1.22
22,TCGTGCAGC,1.03
23,TCGTGCTGTG,0.988
24,TCGTGGGTCT,0.967
25,TCGTGGGTTT,0.999
